Measurements published in PubChem BioAssay AID1768 (National Center for Advancing Translational Sciences (NCATS), 2009).
Screen size: about 270,000 compounds; about 620 (0.23%) were called active. Inconclusive results, whose numbers are uncertain, are shown with a selection of clear calls. Calls follow the shape of the dose curve; as a rule, active = well fitted inhibition curve with a large enough effect in the polarisation, with a control signal flat (not every such curve was filed as active); inconclusive = small, poorly fitted or top-dose-only effect, or effect the other way, or a change in a side signal; inactive = no such curve, though single readings can be large or run the other way; the % refers to the polarisation. Where the call is inconclusive, the potency comes from a doubtful curve fit. “Side channel” marks fits to a control or component signal instead of the main read-out.

Each molecule was assayed against Menin (Homo sapiens) (UniProt O00255) (assay: qHTS Assay for Inhibitors Targeting the Menin-MLL Interaction in MLL Related Leukemias: Competition With Texas Red Labeled MLL-derived Mutant Peptide). Conditions: fluorescence polarization; series mostly up to 61.6 µM.
Potency is read from the fitted curve at half-maximal effect; tags tell the direction and shape of the fitted curve or compound fluorescence and quenching.

Chain of UniProt O00255 (O00255 whole entry, looked up): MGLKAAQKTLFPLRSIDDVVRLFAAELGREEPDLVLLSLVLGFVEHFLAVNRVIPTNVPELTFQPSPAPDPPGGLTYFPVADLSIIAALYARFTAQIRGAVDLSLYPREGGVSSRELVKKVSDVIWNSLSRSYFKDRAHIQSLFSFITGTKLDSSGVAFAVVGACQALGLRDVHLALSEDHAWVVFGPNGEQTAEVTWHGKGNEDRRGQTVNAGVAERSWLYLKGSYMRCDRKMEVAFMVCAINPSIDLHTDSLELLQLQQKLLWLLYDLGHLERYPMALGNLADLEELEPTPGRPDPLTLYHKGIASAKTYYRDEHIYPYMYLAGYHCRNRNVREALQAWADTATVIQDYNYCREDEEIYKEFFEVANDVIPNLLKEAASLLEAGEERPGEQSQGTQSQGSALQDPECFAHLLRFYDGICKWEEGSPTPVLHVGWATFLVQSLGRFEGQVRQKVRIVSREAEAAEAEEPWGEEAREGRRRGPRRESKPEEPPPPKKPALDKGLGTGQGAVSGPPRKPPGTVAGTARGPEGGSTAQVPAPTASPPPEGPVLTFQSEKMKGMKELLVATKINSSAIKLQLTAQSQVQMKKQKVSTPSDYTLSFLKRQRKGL

Structure (SMILES) | Potency
Cn1/c(=N/N=C/c2ccc(N3CCOCC3)cc2)sc2ccccc21 | inconclusive: 11.2 µM [quencher, side channel, partial curve]
N#Cc1c2c(c(-n3cnc4ccccc43)n3c1nc1ccccc13)CCC2 | inconclusive: 17.8 µM [inhibitor, single point]
O=C(O)c1cccc(NC(=S)N/N=C/c2ccccc2OCc2cccc(Br)c2)c1 | inconclusive: 15.8 µM [quencher, side channel, partial curve]
COc1cc(/C=N\NC(=O)c2ccc(C)nc2)ccc1OC(=O)c1cccc(F)c1 | inconclusive: 39.8 µM [fluorescent, single point]
O=C1c2ccccc2C(=O)C1(CO)c1ccc(OC(F)F)cc1 | inconclusive: 25.1 µM [quencher, side channel, single point]
O=c1c(-c2ccccc2)nc2cnc(Oc3cccc(Cl)c3)nc2n1C[C@H]1CCCO1 | inactive
COc1cc(SC)ccc1C(=O)OCC(=O)NCC(C)C | inactive
COc1ccc(C(C(=O)NC2CCCC2)N(C(=O)c2ccoc2C)c2cc(C)cc(C)c2)cc1 (configuration not stated) | inconclusive: 10 µM [fluorescent, side channel, partial curve]
CCOc1cccc2cc(C(=O)NCc3ccc(C)cc3)c(=N)oc12 | inconclusive: 28.2 µM [fluorescent, side channel, partial curve]
CCOc1ccccc1C(=O)N1CCCCC1C (configuration not stated) | inconclusive: 39.8 µM [inhibitor, single point]
O=C(CCl)N=c1sccn1Cc1ccc(Cl)cc1Cl | inconclusive: 25.1 µM [fluorescent, side channel, single point]
O=C1c2ccccc2NC2(CCCCC2)N1N=C1CCCCC1 | inactive
Cc1nn(Cc2c(F)c(F)c(F)c(F)c2F)c(C)c1NC(=O)c1cccc(COc2ccccc2Cl)c1 | inconclusive: 3.16 µM [inhibitor, full curve]
Cc1nc(NC(=O)c2cccc(Cl)c2)sc1-c1csc(Nc2cccc(Cl)c2)n1 | inconclusive: 14.1 µM [quencher, side channel, partial curve]
Cc1cc(C)n(-c2nc(SCC(=O)N3CCCC3)c3c4c(sc3n2)CCCC4)n1 | inconclusive: 5.01 µM [inhibitor, partial curve]
Cc1ccc(O)c(C2=Nc3ccccc3N=C(c3ccco3)C2)c1 | inconclusive: 25.1 µM [quencher, side channel, single point]
O=C(NC(=S)Nc1ccccc1N1CCCC1)c1ccc(-c2cccc([N+](=O)[O-])c2)o1 | inconclusive: 2.24 µM [quencher, side channel, full curve]
Nc1c(-c2ccc(Cl)cc2)nnn1-c1ccccc1 | inconclusive: 39.8 µM [inhibitor, single point]
Cc1ccccc1Cn1cnc2c([N+](=O)[O-])c(C)c(C)cc21 | inconclusive: 3.55 µM [inhibitor, single point]

Structure (SMILES) | Potency
O=C(c1ccccc1)N1CCC(CC2CC(c3ccc(Cl)cc3)=NO2)(C(=O)NCC2CCCCC2)CC1 (configuration not stated) | inactive
C=CCN(C(=O)C1=NN(C2CCS(=O)(=O)C2)C(=O)CC1)c1nc(-c2ccc([N+](=O)[O-])cc2)cs1 (configuration not stated) | inconclusive: 12.6 µM [quencher, side channel, partial curve]
Cc1nc2ccc(NC(=O)c3ccccc3)cc2s1 | inactive
CCSc1ccc(-c2ccco2)nn1 | inconclusive: 15.8 µM [quencher, side channel, partial curve]
CCOc1ccc(NC(=O)C(=O)N/N=C\c2ccc(CNS(=O)(=O)c3ccccc3)o2)cc1 | inconclusive: 25.1 µM [fluorescent, side channel, single point]
COc1ccc(N2CCN(C(=O)c3cc(=O)c4ccc(C)cc4o3)CC2)cc1 | inconclusive: 14.1 µM [inhibitor, partial curve]
O=C(Nc1ccc(O)cc1)c1c(O)c2c([nH]c1=O)CCCC2 | inconclusive: 12.6 µM [quencher, side channel, partial curve]
FC(F)(F)c1cc(NC(=S)NC(c2ccccc2)c2ccccc2)cc(C(F)(F)F)c1 | inconclusive: 17.8 µM [quencher, side channel, single point]
CCCOc1ccc(-c2nc(-c3ccc(N)cc3)cs2)cc1 | inconclusive: 15.8 µM [quencher, side channel, partial curve]
Cc1ccc(C)c(NS(=O)(=O)c2ccc3c(c2)Cc2cc(S(=O)(=O)Nc4cc(C)ccc4C)ccc2-3)c1 | inconclusive: 35.5 µM [inhibitor, single point]
CC1=CC(=C2C(=O)c3ccccc3C2=O)C=C(C)N1Cc1ccco1 | inconclusive: 39.8 µM [quencher, single point]
Cc1ccc(NC(=O)c2cccs2)cc1S(=O)(=O)Nc1cccc(Cl)c1 | inconclusive: 25.1 µM [quencher, single point]
O=C(N/N=C/c1ccccc1O)c1ccc2c(c1)OCO2 | inconclusive: 14.1 µM [quencher, side channel, partial curve]
COc1ccc(C(OCC(O)CN(C)C2CCCCC2)c2ccc(OC)cc2)cc1 (configuration not stated) | inconclusive: 5.01 µM [inhibitor, full curve, poor fit]
c1ccc(-c2nnc(-c3c[nH]c4ccccc34)nc2-c2ccccc2)cc1 | inconclusive: 39.8 µM [inhibitor, single point]
CNCc1c(C)nn(-c2ccccc2)c1C | inconclusive: 4.47 µM [fluorescent, side channel, single point]
Cc1ccc2[nH]c(=O)c3cc(C(=O)N(C)C4CCCCC4)sc3c2c1 | inconclusive: 8.91 µM [fluorescent, side channel, full curve, poor fit]
CCOC(=O)Cc1csc(N/N=C\c2ccc(N(C)C)cc2)n1 | inconclusive: 12.6 µM [quencher, side channel, partial curve]
Cn1c(NCc2ccco2)nc2c1c(=O)n(Cc1ccc(Br)cc1)c(=O)n2C | inconclusive: 20 µM [quencher, side channel, single point]

Structure (SMILES) | Potency
COc1ccccc1/C=C/CN1CCC(Oc2ccc(C(=O)N3CCCC3)cc2)CC1 | inconclusive: 6.31 µM [fluorescent, side channel, partial curve]
Cn1c(SCC(=O)Nc2ccc3c(c2)oc2ccccc23)nnc1-c1ccccc1 | inactive
CCN1C(=O)CC(C(=O)Nc2ccc(F)cc2)SC1=Nc1ccc2c(c1)OCO2 (configuration not stated) | inconclusive: 12.6 µM [quencher, side channel, partial curve]
COc1cc(/C=N/n2c(C3CCCCC3)n[nH]c2=S)cc(OC)c1O | inconclusive: 8.91 µM [inhibitor, partial curve, poor fit]
Cc1n[nH]c(C)c1N1C(=O)c2cccc3c(N4CCCCCC4)ccc(c23)C1=O | inconclusive: 12.6 µM [fluorescent, side channel, partial curve]
O=C(CNc1cccc2ccccc12)N/N=C/c1ccc([N+](=O)[O-])o1 | inconclusive: 28.2 µM [quencher, side channel, partial curve]
c1ccc(Nc2scc(-c3ccccc3)[n+]2Cc2ccco2)cc1 | inconclusive: 39.8 µM [quencher, side channel, single point]
CCCN(CCC)Cc1c(C(=O)N/N=C/c2c[nH]c3ccccc23)nnn1-c1nonc1N | inconclusive: 12.6 µM [quencher, side channel, partial curve]
CC(O)CNC(=O)C1CCN(Cc2ccc(OCc3ccccc3)cc2)CC1 (configuration not stated) | inconclusive: 22.4 µM [inhibitor, partial curve, poor fit]
CC(C)c1ccc(N=c2c([N+](=O)[O-])nn(-c3ccc4c(c3)OCCO4)n2O)cc1 | inconclusive: 28.2 µM [quencher, side channel, single point]
O=C(Nc1cccc(C(F)(F)F)c1)c1sc(Cl)nc1C(F)(F)F | inconclusive: 15.8 µM [quencher, side channel, single point]
c1ccc2nc(-c3nc4ccccc4o3)ccc2c1 | inconclusive: 28.2 µM [inhibitor, single point]
O=C(CSc1ccc(Cl)cc1)c1ccco1 | inconclusive: 3.55 µM [quencher, side channel, full curve]
Cc1ccc2c(c1)c1c(n2CC(O)CNC2CCCCC2)CCCC1 (configuration not stated) | inconclusive: 2.24 µM [fluorescent, side channel, full curve]
O=C1NN(c2ccc(Cl)c(Cl)c2)C(=O)/C1=C/c1ccc(-c2ccccc2C(=O)O)o1 | inconclusive: 20 µM [quencher, side channel, partial curve]
COc1ccc(CCNC(=O)CN2CCN(c3ccccc3Cl)CC2)cc1 | inconclusive: 10 µM [fluorescent, side channel, partial curve]
Cc1sc(=NC(=O)c2ccco2)n(C)c1-c1ccc(F)cc1 | inconclusive: 10 µM [fluorescent, side channel, full curve, poor fit]
COc1ccc(-c2ccnc3nc(N4CCOCC4)nn23)cc1 | inconclusive: 39.8 µM [inhibitor, single point]
CCC1OC(=O)C[C@@H](O)[C@H](C)[C@@H](OC2OC(C)CC(N(C)C)C2O)[C@@H](CC=O)C[C@@H](C)C(=O)/C=C/[C@]2(C)OC2C1C (some centres not stated) | inactive
